Laboratory results reported in publication PMC4336329 (PLoS ONE, 2015).
Screen size: about 310,000 compounds; about 14,000 (4.5%) showed an effect of 50% or more. Effects have a minus sign here. This is one part of the list.

Target: human ether-à-go-go-related gene (hERG) potassium channel (human, UniProt Q12809)
Assay: primary screen, population patch clamp on CHO cells stably expressing hERG
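Note: peak tail current of the secondary pulse compared with the same well before compound.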

Chain of human ether-à-go-go-related gene (hERG) potassium channel (Q12809 whole entry, looked up): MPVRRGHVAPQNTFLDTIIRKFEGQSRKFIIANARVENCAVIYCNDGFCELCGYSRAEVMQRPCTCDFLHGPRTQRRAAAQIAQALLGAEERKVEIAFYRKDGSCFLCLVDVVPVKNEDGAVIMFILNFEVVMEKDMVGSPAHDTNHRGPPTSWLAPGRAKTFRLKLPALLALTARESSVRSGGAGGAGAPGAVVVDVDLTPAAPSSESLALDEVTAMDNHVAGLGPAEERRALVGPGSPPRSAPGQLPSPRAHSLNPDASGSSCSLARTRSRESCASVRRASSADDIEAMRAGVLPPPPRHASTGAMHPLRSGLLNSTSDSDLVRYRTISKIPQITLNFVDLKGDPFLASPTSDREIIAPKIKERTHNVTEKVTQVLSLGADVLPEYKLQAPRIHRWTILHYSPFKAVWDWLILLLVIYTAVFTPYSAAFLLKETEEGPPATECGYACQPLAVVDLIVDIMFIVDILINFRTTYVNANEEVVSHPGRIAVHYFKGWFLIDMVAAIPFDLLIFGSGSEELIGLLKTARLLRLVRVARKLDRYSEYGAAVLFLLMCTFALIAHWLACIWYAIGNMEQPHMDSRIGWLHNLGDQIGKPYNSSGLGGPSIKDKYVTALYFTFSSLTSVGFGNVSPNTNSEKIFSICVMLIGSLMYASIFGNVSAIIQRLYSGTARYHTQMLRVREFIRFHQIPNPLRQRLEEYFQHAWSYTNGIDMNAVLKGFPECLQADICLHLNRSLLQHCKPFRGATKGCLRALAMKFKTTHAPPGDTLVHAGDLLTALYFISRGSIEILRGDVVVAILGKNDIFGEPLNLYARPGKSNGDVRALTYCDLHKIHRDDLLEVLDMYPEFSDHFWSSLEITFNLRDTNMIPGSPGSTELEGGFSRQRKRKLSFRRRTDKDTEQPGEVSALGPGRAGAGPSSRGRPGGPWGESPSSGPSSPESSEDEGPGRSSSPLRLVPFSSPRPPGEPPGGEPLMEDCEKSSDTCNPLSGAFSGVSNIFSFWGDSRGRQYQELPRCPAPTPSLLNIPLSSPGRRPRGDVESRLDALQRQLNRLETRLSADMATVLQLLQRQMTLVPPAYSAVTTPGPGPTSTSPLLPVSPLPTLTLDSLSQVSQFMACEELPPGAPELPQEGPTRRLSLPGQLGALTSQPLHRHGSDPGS

Compound	hERG current change (%, negative = inhibition) at 10uM
Cc1c(C(=O)C(=O)N2CC=C(c3ccccc3)CC2)c2ccccc2n1C	-4.57%
Cc1cc(F)ccc1S(=O)(=O)Nc1ccccc1C(=O)Nc1ncn[nH]1	-9.1%
N#C/C(=C\c1ccccc1[N+](=O)[O-])C(=O)Nc1ccc(S(N)(=O)=O)cc1	-7.82%
O=c1[nH]c2ccccc2nc1Cc1ccccc1	-0.877%
Cc1ccc(CSc2ccc(S(=O)(=O)N3CCOCC3)cn2)cc1	-10.2%
CCCCCCC1(C)NC(=O)N(C(C)C(=O)Nc2ccc(N3CCOCC3)cc2)C1=O (centres unmarked)	-15.6%
COc1ccc(S(=O)(=O)N2CCCC(C(=O)NCc3ccccn3)C2)cc1 (centres unmarked)	-4.88%
CCN1CCN(C(=O)Cc2c(C)n(C(=O)c3ccc(Cl)cc3)c3ccc(OC)cc23)CC1.Cl	-38.6%
O=C(O)CCCNC(=O)OCc1ccccc1	2.02%
Fc1ccc(N=c2ssnc2Cl)c(F)c1	22.1%
CCN(CC)S(=O)(=O)c1ccc(/C=C/C(=O)OCC(=O)NNC(=O)c2ccc(OC)cc2)cc1	-7.77%
CC(Sc1nnc(C2CC2)n1C1CC1)C(=O)c1ccc(F)cc1 (centres unmarked)	-3.15%
Cc1csc(N2CCCC2=O)n1	17.1%
Cc1ccc(CNC(=O)c2nccnc2C(=O)O)cc1	10.9%
CCOC(=O)c1cnn(-c2ccc([N+](=O)[O-])cc2)c1N	1.43%
Cc1ccc(NC(=O)Cn2c(=O)oc3cc(S(=O)(=O)N4CCC(C)CC4)ccc32)cc1C	-3.11%
CN(C)/C=C(\C(=O)c1ccccc1)c1nnnn1-c1ccc(F)cc1	9.72%
CCCCn1c(C2CCCCC2)nc2cc3[nH]c(=O)c(C(C)C)nc3cc21	-12.3%
C=CCN1C(=O)C(Cc2ccc(SC(F)F)cc2)SC1=Nc1ccc(C(=O)O)cc1 (centres unmarked)	1.77%
COc1cc(OC)c(/C=N/NC(N)=S)cc1Br	20.3%
O=c1[nH]ncn1-c1ccccc1	22%
O=C(Nc1ccc(C2CCCCC2)cc1)C1CCN(c2ncccn2)CC1	22.8%

Compound	hERG current change (%, negative = inhibition) at 10uM
CC(=O)Nc1cccc(/C(C)=N/NC(=O)c2ccc(CN3CCOCC3)cc2)c1	7.7%
Cn1c(Cn2c(=O)sc3ccccc32)nnc1SCC(=O)Nc1ccc(Cl)cc1	-2.98%
COc1ccccc1OC(C)C(=O)Nc1ccc(S(=O)(=O)N2CCN(C)CC2)cc1 (centres unmarked)	3.85%
O=[N+]([O-])c1cc(Cl)ccc1-c1nc(-c2ccccc2)no1	6.74%
CCN1CCCC1CNC(=O)Cn1cccc1C(=O)c1ccccc1 (centres unmarked)	-3.53%
O=C(CSc1nc2ccccc2[nH]1)Nc1ccccc1N1CCOCC1	-8.81%
Cc1cccc(NC(=S)N(Cc2cccs2)Cc2cc3cc(C)cc(C)c3[nH]c2=O)c1	23%
COc1ccc(-c2cc(C)no2)cc1S(=O)(=O)N1CCCN(Cc2ccc(F)cc2)C1	-16.9%
CCOc1ccccc1CN1CCNC(=O)C1CC(=O)NCc1nccn1CC (centres unmarked)	18.8%
Cc1cccc(NC(=O)c2ccc(F)c(S(=O)(=O)N3CCC4(CC3)OCCO4)c2)c1	-11.1%
COc1cc(NS(=O)(=O)c2ccc(NC(=O)c3ccc(F)cc3)cc2)ncn1	8.57%
Cc1ccccc1C(=O)N1CCC(C(=O)NC2CCCCCC2)CC1	16.9%
COC(=O)c1ccc(-n2c(CCC(=O)O)ccc2-c2ccccc2)cc1	15.5%
Cc1cccc2c1N(CCOc1ccccc1)C(=O)C2=O	8.87%
CCOc1ccc(S(=O)(=O)NCc2ccccc2OC)cc1	-5.8%
CC(C)(C)NC(=O)C(=O)NNC(=O)COc1ccc(Br)cc1	5.23%
COc1cc(NC(=O)Cn2cnc3sc(C)c(S(=O)(=O)N4CCOCC4)c3c2=O)cc(OC)c1OC	32.7%
CCOc1cc(C(=O)N(C)c2ccccc2)cc(OCC)c1OCC	-10.7%
CCN1CCCc2cc(CN(CCN3CCOCC3)C(=S)Nc3ccc(OC)cc3)ccc21	7.64%
C=CCNC(=O)c1cc(-c2ccncc2)nc2c(C)cc(C)cc12	-43.5%
Cc1sc2ncnc(NCC(O)c3ccc([N+](=O)[O-])cc3)c2c1C (centres unmarked)	-71.6%
COc1ccc(S(=O)(=O)N(C)C)cc1NC(=O)CSc1nc(N)cc(N)n1	18.1%
